Experimental data published in the RNAGym collection of RNA variant scans (doi:10.7554/elife.90254).
The source gives no read counts; variants with many changes may rest on few reads.

B1: LINE1-full (parent)
chain: UACGUAGGUGGUUUUCCCCUGAUAGUGCUAAGGGGGCCUGGAAGUUUGGACUGGGCAGAGCUCAACACAGCGUGGCAAAGUGGCUGUGGCUAGACUGCCUCUCUGGAUUCCUCGUCACUCAGCAGGGCAUCUCUGAGAGAAAUGCC

Variants of: B1
Experiment: self-cleavage, relative activity (ratio to wild type); higher = more cleavage; in vitro, sequencing; the parent is a self-cleaving ribozyme

Variant	self-cleavage
U14C A79G U134A	0.84
U12C C71A U91C U134A	0.09
U62C C63U A78U	0.09
U20A A30G U85C	0.95
U73A C76U U108C	2.64
U23A U45C U130C A136U	1
U45A A78U U100C	2.43
U26C G89U A138G	0.03
U13C U14C U15C A129U U132C	1.48
U1C A50G A94G	0
U12C U73A U81A C98A	0.59
U20C C111U U112C A142G	1.62
A42G A67G G75A	0
U13C U20A U45C U52C A124G	0
A42G G72A A92G A117G U132C	1.31
U39G U104C A121U	0.94
U9C G82U U96C A117G	0.3
U62A A65G A124G	0
U13A A65G A141G	0.04
G74A U112C A129G A138G	2.76
U9C A57U G137A	0.25
U9C A42G U104A C113U A136G	0.68
U12C U20C G25A U39A A138G A142G	1.18
U26C A42U A140G A141G	0.92

Variant	self-cleavage
A69U G86A U104C	0.03
A59C A107U U115C	1.99
U15C U39C A129G	1.87
U45C A67G A77G	0
A6U A77U A79G A107U U134A	0.28
U52C G88A U130C G139U	0.06
U15C C19A G54U A107G A138G A141G	1.56
A22U A31G U96C G127A	0.2
U20A C37U U45C U130C	1.46
A107G A142U G144A	1.9
U62C U112A A141G	0.07
U46C A78G A141G	1.39
A69U C133A U143C	0.04
U29C U62A A69G	0
U13A U104A U119C	2.04
A2G U85A U102C	0.3
U20G U134C U143C	1.34
A22G A24G G144U	0.71
U12G U29C C51A A138G	1.33
U12C A141G U143C	1.51
G4A U26C A67U A92U	0.12
A67U U100A A124C A141G	0
U20A A78G A136G	1.43
U52A A77G A78G	1.38

Variant	self-cleavage
G10A U52A A69U U73A	0.07
G40U U45A U134C	1.56
A22C U62C A140G	0
U14C A59G A107G C116U	0
U1C A42G A59G U104C	0
U45A U81C U132A A140U	0.99
G27A A65G A138G	0.07
G35A U62A A64G	0.02
U20C G34A U119A	1.67
U13C C19A A67C U85G G135A	0.13
A30G U47C A107G C128U	1.62
U13C U87C G122A	0.18
U26A U47C A79G C120U U130C A142G	1.19
U39A U73C A94G A136U	0.92
G40A A67U C90U	0.02
U1C U100C U104G A140G	0.92
A6G G58U A59G G86A U96C U108C	0.25
A57G U96A U112C A121G	0.21
U1C U87C U134A U143A	0
A30C U47G G82A U112C A140G	0.52
A42U U46C U143C	1.06
U9C A59U A121G G125U A142G	1.28
U81A U102C U112C	1
C68U C128U G139A	0.39

Variant	self-cleavage
C99A U104C U112C A138G	0
G74U A138G A142G	1.69
A43G A107G G127U	1.15
U14G A30U A69G U73G U85A	0.46
U52C A57U A92U U108C	0.57
A2C C17A C63A U73A U87C A138G	0.02
U39C U45G G60A A140G	0.04
U9C C37A A42G U47A	1.15
A22U A57G A117G	0.46
A2G A43G G80A U109A A136G	1.52
U13A A57G U109C	0.28
U81A U134A A142U	1.67
U15A U73C U91A U108C	0
U100C U104A A138U	2.06
A24U A64U U115C A140G	0
U12C U62C A140G	0.09
A57G U73A U132G	0.65
U47C G60U G105A A138G	0.01
U12C A124U A129G	1.61
U39C C51U A94G U130A	0.44
C3U A43G G97U A138G	0.14
G35A A43G A94G G114A	0.18
U15A U87A A129G	0.06
U45C U52A U73A U104A	2.58

Variant	self-cleavage
U20C A31U U109A	0.88
U15A G44A A50G A59G	0.26
U5C A69G A138G	0.4
U52C A69G A136G	0.2
A6G U102C U119A	1.19
U39A A64U A78G U115A A140G	0.25
G32A G80A U132C	1.9
U23C U96G U109C	0.71
A50G U102A A124U U130A	1.11
U115C A129G G135A	0
U15C A22G U81A U130A A142G	1.79
U26G U47C G105A A117G U119C	1.57
A50U A69G U119C	0
G4A U13C A59G	0.13
A2G A42G G114C	1.22
C3U C51A U81C U102C A121G	0.38
G58U A77U U96C U102A U134C A136U	0.06
U9C A121U A142G	1.19
C71U U87C U102C	0.07
U1A A24G C61U G89A U109C A136C A140G	0.14
A2U U9C U26C G35A A69U U73C A78G A92G	0
U9C A42G U81C	0
U26C U73C U81A A129U	2.35
A67G A124G G127A	0.67

Variant	self-cleavage
U14C A64U U100A	0.35
G21U U73A G75U A121U	1.84
U52A A129G A140U	1.07
C28U A59U U96A U130C	0.05
U9A A67G U100C A124G	0
A22G U91C U115A	0.38
A30G U102C A121U U134A G135A	0.32
U45A A57G G72A A107G A129G A140G	0.13
U14C U23A U39A A141G	1.6
A107G U119C A142G	0.43
A78U A107G A140U	2.05
G60C U130C U143C	0.03
U23G U73C A77U U85G	1.31
U20A U85C A141U	0.27
A94G G97A U102C C103A A141G	0.11
U100A A117G U134C	0.31
A79U A129G U132C	1.59
U14C A64G G88A U104A A142G	0.09
A6U U20A A64U U143A	0.6
U26A A42G U47A A50U A69G A129U	0.07
A78U U109C A129U	2.39
U39C U45C U52C	0
U9C U13A G36C A78G U119C C131G	0.15
A43C U45A A138G	1.41

Variant	self-cleavage
U81G U96A U104A A107G U109A	0
U47A U96C U134C U143A	0.19
A6G U12G A117G	2.3
U52A U102C A142U	0.09
A2U U102A U134A	0.93
A59U A69G A77U G137A A138G	0.37
A43U U102A U115C	1.86
A22U A57G U109A	0.27
U13C G40A U47C A65G A77G	0.14
U47A U62C U132C	0.03
U5C U112C A141U	0.56
U12C U29A A121G	1.45
U20C G35A U62A	0.04
U13C C56U U104C A129G U132C	0.4
U91C A121U A141U	1.42
A22G A31U G35U A78U U87A A124G U130C	0.16
U12G G48A A78G A94G A107G	1.15
U26C U29A A30G A42U U96C	0.23
U52A A59G C113U	0.06
U13C U52C A78G U109C C118U	0.8
A6U G86A U119C A129U	0.2
U47C G58A A140G	0.05
G7A U15C U23C U29C U47C A57C U85A A121U	0
